The values below come from PMC12040169 (PLOS Biology, 2025).

Structures are written as SMILES. Some of the results follow.

This assay deals with T1, C. trachomatis L2/434/Bu expressing GFP (CTL2-GFP).
T1 construct: L2/434/Bu GFP intracellular growth in HeLa cells
The arrangement: species or system HeLa; C. trachomatis total inclusion area by high-content imaging, normalised to DMSO. Particulars: total inclusion area; 28.5 h, 10 µM; inhibitor. A digest of the protocol:
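After bulk GFP and resorufin fluorescence reads, cells were fixed, stained with Hoechst and imaged by high-content microscopy. Inclusion area and number (GFP) stood in for chlamydial growth, nuclei count (Hoechst) for host cell viability. MICs were derived as for the bulk readout.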
In the case of `CCc1nc2ccc(C(=O)NC3=NN(c4ccccc4)C(=O)C3)cn2c1N(C)C(=O)COc1ccccc1` [CBK145873], the “% of control remaining” value was found to be 106.509.
For `Cc1nnc2n1-c1ccc(Cl)cc1C(c1ccccc1)=NN2CCCC(=O)c1ccc(F)cc1` [CBK016076], the “% of control remaining” value turned out to be 103.891.
Turning to `Cc1nccc(C(=O)N2CCC3(C/C=C/C[C@H]4COCC[C@H]4NC(=O)CNC3=O)CC2)n1` [CBK292072], the “% of control remaining” value came out at 90.0714.
For `CN(C)S(=O)(=O)N(CC(=O)Nc1cccnc1)c1ccccc1` [CBK267958], the “% of control remaining” value was 92.4256.
For the molecule `O=C(c1ncoc1-c1ccc(F)cc1)N1CCN2CCCCC2C1` (stereo not drawn) [CBK282400], the “% of control remaining” value turned out to be 95.109.
Take `CN(c1ccc(C(=O)Nc2ccc(S(=O)(=O)N3CCCC3)cc2)cc1)S(=O)(=O)c1ccccc1` [CBK266896]: the “% of control remaining” value turned out to be 73.6585.
As for `O=C(O)CCC(=O)NCC1OCCc2ccccc21` (stereo not drawn) [CBK265865], the “% of control remaining” value amounted to 73.1932.
As for `CCOc1ccc(CC(=O)Nc2ncccc2OCCCC#N)cc1` [CBK304062], the “% of control remaining” value amounted to 22.2856.
Then `COc1ccc(C(=O)OC(C)(C)C)c(-c2cncc(N3CCN(CCO)CC3)n2)c1` [CBK037239], with 156.307; and `Cc1ccc(C2(CN3CCN(Cc4ncc[nH]4)CC3)CC2)cc1` [CBK283306], with 61.5069.
Then `CCOC(=O)[C@H]1CC[C@]2(CC1)CNC(=O)c1cc(Cl)ccc1O2` [CBK284849], with 90.3225.
Regarding `CC(NC(=O)COc1ccc(Cl)cc1Cl)C(=O)O` (stereo not drawn) [CBK261425], the “% of control remaining” value was 106.671.
As to `CSc1nc(NC(=O)C2CCCO2)cc(N2CCNCC2)n1` (stereo not drawn) [CBK026740T], the “% of control remaining” value is 104.03.
As to `CC(C)c1ccc(NC(=O)O[C@@H]2CO[C@H]3[C@@H]2OC[C@@H]3NC(=O)c2cncnc2)cc1` [CBK289480], the “% of control remaining” value was determined as 60.7189.
For `CCOC(=O)N1CCC(Nc2nc3ccccc3nc2OCc2cc(C)on2)CC1` [CBK171825], the “% of control remaining” value was determined as 111.72.
In the case of `O=C1Nc2ccc([N+](=O)[O-])cc2C1(O)N1CCCCC1` (stereo not drawn) [CBK262496], the “% of control remaining” value was found to be 116.416.
Next, `O=C(Nc1ccc(F)cc1)c1ccc(NS(=O)(=O)Cc2ccccc2[N+](=O)[O-])cc1` [CBK050405]: 69.5232; `NC(=O)c1c(NC(=O)c2ccc(-c3ccccc3)cc2)sc2c1CCC2` [CBK265747]: 120.049; `O=C(Oc1ccccc1O)c1cccc(Cl)c1` [CBK090130]: 25.8495.
As to `O=C(O)C1CCN(c2ncnc3sc4c(c23)CCC4)CC1` [CBK268326], the “% of control remaining” value stood at 79.0996.
On to `O=C(NC1CCCCC1)N1Cc2nc[nH]c2C[C@H]1c1nc(-c2ccc3c(c2)OCO3)no1` [CBK289000], for which the “% of control remaining” value worked out at 77.8093.
Turning to `O=C(c1cc(F)cc(F)c1)N1CCn2c(nnc2C2CC2)C1` [CBK283772], the “% of control remaining” value was found to be 90.8483.
On to `Sc1nnc(Cc2cccc3ccccc23)n1-c1ccccc1` [CBK265052], for which the “% of control remaining” value was determined as 88.4685.
Next, `CC1CCCN(C(=O)N(C)C)C1` (stereo not drawn) [CBK023175]: 30.6012.
Regarding `COc1ccc(-c2nc(-c3ccc(C(=O)N4CCOCC4)cc3)cnc2N)cc1` [CBK116509], the “% of control remaining” value is recorded as 107.311.
As for `CCOC(=O)c1ccc(-c2ccc(C(=O)Nc3ccc(-c4nc5ccccc5o4)c(O)c3)o2)cc1` [CBK263428], the “% of control remaining” value is 123.821.
For the molecule `CCc1nn(CC(=O)NC(C)(C)C)c(=O)c2cc3sc(C)cc3n12` [CBK284124], the “% of control remaining” value came to 39.4601.
For `CCOC(=O)c1sc(-c2ccc3c(c2)OCO3)nc1O` [CBK078565], the “% of control remaining” value turned out to be 118.818.
Next, `CCc1ccc2occ(CC(=O)Nc3ccc(C(=O)OC)cc3)c2c1` [CBK268318]: 72.5788; `COc1ccc(-c2cc(-c3ccccc3)nc(N/N=C/c3ccc(O)c(C)c3O)n2)cc1` [CBK261721]: 94.4544.
As for `Cc1cc(C)c(S(=O)(=O)N2CCC(C(=O)Nc3ccc(C(N)=O)cc3)CC2)c(C)c1` [CBK266424], the “% of control remaining” value came out at 106.554.
Then `N#Cc1sc2nc(-c3ccncc3)ccc2c1N` [CBK288547], with 86.8187; and `CC1CCN(S(=O)(=O)c2ccc(NC(=O)CN3CCOCC3)cc2)CC1` [CBK268339], with 127.064.
On to `COc1ccc(CN[C@H]2[C@H](O)[C@@H](N3CCN(C(C)=O)CC3)[C@@H]3OC[C@H]2O3)cc1` [CBK288808], for which the “% of control remaining” value is recorded as 93.3642.
As for `CC(=O)Nc1cccc(Oc2nccnc2-c2cc3ccccc3s2)c1` [CBK106784], the “% of control remaining” value was found to be 87.3681.
`Clc1ccc(-n2c(SCc3nc4ccccc4[nH]3)nnc2-c2ccncc2)cc1` [CBK267557]: the “% of control remaining” value worked out at 114.24.
Regarding `CS(=O)(=O)Nc1cc2cccnc2nc1-c1ccccc1` [CBK085689], the “% of control remaining” value was determined as 90.9934.
Then `COC(=O)c1sc2cc(NC(=S)NNC(=O)c3ccoc3C)ccc2c1Cl` [CBK266877], with 106.614; and `CC(=O)N1CCC2(C/C=C/C[C@H]3CN(C(=O)C4CCC4)CC[C@H]3NC(=O)CNC2=O)CC1` [CBK292108], with 99.6168; and `CCN(CCn1cccn1)c1nc2nonc2nc1N(C)C` [CBK306630], with 73.2488.
As to `O=C1CC(c2cc(F)ccc2F)c2c(-c3ccc(Cl)cc3)n[nH]c2N1` (stereo not drawn) [CBK288000], the “% of control remaining” value was 81.2105.
Consider `COc1cccc2c1OCC[C@@H]2Oc1cncc(N2CCNCC2)n1` [CBK172305G], for which the “% of control remaining” value was determined as 106.415.
Consider `Cc1ccc(CS(=O)(=O)NCc2ccccc2-n2ccnc2)cc1` [CBK281462], for which the “% of control remaining” value worked out at 102.593.
As to `CC(NC(=O)CSc1ncc(-c2ccccc2)nn1)c1ccccc1` (stereo not drawn) [CBK267514], the “% of control remaining” value is 101.341.
In the case of `COc1ccc2nc(Nc3nc4ccc(S(C)(=O)=O)cc4s3)sc2c1` [CBK287484], the “% of control remaining” value came to 110.857.
Consider `OCCN(CCO)Cc1ccc(Cl)c(Cl)c1` [CBK261919], for which the “% of control remaining” value worked out at 95.0843.
On to `CCc1nccn1CCC(=O)N1CC(OCc2ccccc2F)C1` [CBK306597], for which the “% of control remaining” value was 34.4438.
Then `COc1ccc(OCc2nc(C)cc(=O)n2CC(=O)NC(C)C)cc1` [CBK300525], with 88.0532.
For `CC(C)(C)c1csc(NC(=O)C2CCCCC2)n1` [CBK058720], the “% of control remaining” value is 12.7219.
As for `O=C(Nc1ccc(F)cc1)OCC1COc2ccccc2C1` (stereo not drawn) [CBK017146], the “% of control remaining” value was 76.2218.
With `CS(=O)(=O)N1CC2(CCN(Cc3ccc([N+](=O)[O-])cc3)CC2)c2ccccc21` [CBK084010], the “% of control remaining” value was 66.7032.
Next, `CC(C)NC(=O)CC[C@@H]1CNC(=O)[C@@H]2C[C@H](NC(=O)c3ccccc3)CN12` [CBK289002]: 94.8913; `Nc1c(C(=O)NCc2ccco2)c2nc3ccccc3nc2n1C1CCCC1` [CBK269323]: 54.0697.
Take `c1csc(Sc2nccnc2N2CCCC2)n1` [CBK093805]: the “% of control remaining” value stood at 114.89.
Turning to `CN(C)CCNC(=O)c1cccc(-c2cncc(NCc3ccc4c(c3)OCO4)n2)c1` [CBK065361], the “% of control remaining” value was found to be 102.72.
Consider `Cc1ccc(CNC(=O)CN(c2cccc(C(F)(F)F)c2)S(=O)(=O)c2ccc(C)cc2)cc1` [CBK263997], for which the “% of control remaining” value came out at 108.634.
Next, `CN(Cc1ccccc1)C(=O)c1cc(=O)[nH]c2ccccc12` [CBK287971]: 63.571; `O=C(c1ccncc1)N1Cc2ccccc2C1` [CBK200316]: 125.468; `OC(CNCc1ccc2c(c1)OCO2)CSc1ccccc1` (stereo not drawn) [CBK074684]: 63.9701.
Next, `CC(=O)Nc1ccc(NC(=O)CSC2=C(C#N)C(c3ccco3)C3=C(CCCC3=O)N2)cc1` (stereo not drawn) [CBK264462]: 110.661; `O=C(O)CNS(=O)(=O)c1cccc2nsnc12` [CBK261136]: 102.918.
`O=C(O)COc1ccc(/C=C/c2nc3n(n2)C=COc2ccccc2-3)cc1` [CBK286650]: the “% of control remaining” value is 71.5967.
With `CCc1cc(CNC(=O)C(c2ccc(Cl)cc2)N(C)C)on1` (stereo not drawn) [CBK281670], the “% of control remaining” value is reported as 94.3351.
As to `O=C(O)CSc1nnc2ccc(C(F)(F)F)cn12` [CBK018930], the “% of control remaining” value is listed as 82.6747.
Consider `COc1ccccc1-c1nccnc1N1CCN(c2ccncc2)CC1` [CBK037081], for which the “% of control remaining” value is 105.366.
For `CC1=NN(C(=O)NS(=O)(=O)c2ccccc2Cl)C(C)(C)C1` [CBK018947], the “% of control remaining” value was found to be 66.9239.
As for `O=C(O)C1C2C=CC(O2)C1C(=O)NCCCc1ccccc1` (stereo not drawn) [CBK286982], the “% of control remaining” value is recorded as 82.0679.
Consider `O=c1[nH]nc(SCc2csc(COc3ccc(Cl)cc3)n2)n1C1CC1` [CBK295146], for which the “% of control remaining” value was 19.6232.
Next, `CN1CCC(N2CCN(C(=O)c3ccc4c(c3)no[n+]4[O-])CC2)CC1` [CBK149095]: 128.433; `C=C(C)Cn1c(SC(C)C)nnc1-c1ccccc1OC(F)(F)F` [CBK200081]: 117.97.
As for `CN1C(=O)C2(CC(=O)N(CCC3CCCCC3)C2=O)c2ccccc21` (stereo not drawn) [CBK075461], the “% of control remaining” value was determined as 96.7743.
On to `O=C(CN1CCCN(c2ncc(C(F)(F)F)cc2Cl)CC1)Nc1c(F)cccc1F` [CBK074636], for which the “% of control remaining” value came out at 95.8408.
For `CC(c1ccc(F)c(F)c1)N(C)C(=O)Cn1cnc2c(c1=O)CCC2` (stereo not drawn) [CBK306291], the “% of control remaining” value is 68.4825.
For the molecule `Cc1ccc2nc3c(cc(C(=O)NC4CCCC4)c(=N)n3Cc3ccco3)c(=O)n2c1` [CBK265242], the “% of control remaining” value is reported as 98.4391.
Consider `Fc1ccc(Sc2cccc(C(F)(F)F)n2)cc1` [CBK115240], for which the “% of control remaining” value was determined as 64.5336.
Turning to `Cc1cc(C)nc(Nc2ccc(C3CCCN(S(=O)(=O)c4ccc(F)cc4)C3)nc2)n1` (stereo not drawn) [CBK285987], the “% of control remaining” value worked out at 74.5777.
Consider `CC(C)(C)C(=O)N1CCC2(CC1)Nc1cccnc1-n1cccc12` [CBK284507], for which the “% of control remaining” value was 92.3789.
Next, `COc1ccc(-c2cc(C(=O)NCCc3ccncc3)cnc2-c2ccc(F)cc2)cc1` [CBK037434]: 108.485.
